# Reference: publication PMC4336329 (PLoS ONE, 2015)
# Screen size: about 310,000 compounds; about 14,000 (4.5%) showed an effect of 50% or more. The effect is printed as a negative number. Some of the results follow.
# Biological target: human ether-à-go-go-related gene (hERG) potassium channel (human, UniProt Q12809)
# Assay: primary screen, population patch clamp on CHO cells stably expressing hERG
# 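Note: peak tail current of the secondary pulse compared with the same well before compound.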
# human ether-à-go-go-related gene (hERG) potassium channel, sequence (Q12809 whole entry, looked up): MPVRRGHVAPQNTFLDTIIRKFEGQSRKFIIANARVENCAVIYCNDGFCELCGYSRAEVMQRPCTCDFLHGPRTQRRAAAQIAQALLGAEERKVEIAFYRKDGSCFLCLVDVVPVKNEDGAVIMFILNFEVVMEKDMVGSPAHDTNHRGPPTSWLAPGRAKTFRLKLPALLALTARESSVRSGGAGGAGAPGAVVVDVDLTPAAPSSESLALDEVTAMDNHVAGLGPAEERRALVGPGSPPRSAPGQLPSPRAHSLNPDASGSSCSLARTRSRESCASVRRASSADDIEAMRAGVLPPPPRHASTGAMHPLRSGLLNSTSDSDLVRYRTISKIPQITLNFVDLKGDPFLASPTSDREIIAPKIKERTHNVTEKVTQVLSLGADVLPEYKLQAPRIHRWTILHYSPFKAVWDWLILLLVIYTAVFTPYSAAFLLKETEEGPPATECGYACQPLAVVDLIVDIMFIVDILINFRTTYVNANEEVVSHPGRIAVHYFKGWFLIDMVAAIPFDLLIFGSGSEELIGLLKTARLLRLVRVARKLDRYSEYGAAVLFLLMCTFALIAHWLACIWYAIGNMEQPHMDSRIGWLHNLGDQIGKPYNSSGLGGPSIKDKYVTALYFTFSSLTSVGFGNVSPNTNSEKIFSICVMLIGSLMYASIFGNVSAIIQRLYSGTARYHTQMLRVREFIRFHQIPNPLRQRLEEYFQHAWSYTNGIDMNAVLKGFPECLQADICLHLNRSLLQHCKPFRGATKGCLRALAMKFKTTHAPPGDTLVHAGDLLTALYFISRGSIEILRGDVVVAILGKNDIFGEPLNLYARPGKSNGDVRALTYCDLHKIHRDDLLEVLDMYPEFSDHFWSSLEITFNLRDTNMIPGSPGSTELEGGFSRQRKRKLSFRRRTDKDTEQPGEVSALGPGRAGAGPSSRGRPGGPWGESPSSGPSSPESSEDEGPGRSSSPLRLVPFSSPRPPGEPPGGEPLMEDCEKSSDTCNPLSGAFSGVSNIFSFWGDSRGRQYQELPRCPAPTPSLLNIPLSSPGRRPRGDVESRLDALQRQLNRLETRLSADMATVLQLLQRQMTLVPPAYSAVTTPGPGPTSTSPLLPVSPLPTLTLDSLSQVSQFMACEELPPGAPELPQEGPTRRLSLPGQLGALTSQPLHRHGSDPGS
row,Compound,"hERG current change (%, negative = inhibition) at 10uM"
1,O=C(CCc1ccc(CCC(=O)c2cccs2)s1)c1cccs1,4.49%
2,O=C(O)c1ccc(Cl)c(NC(=S)NC(=O)c2cccc(COc3ccccc3)c2)c1,30.4%
3,Oc1cccc(/C=N/Nc2ncnc3c2ncn3Cc2ccccc2)c1,-11.4%
4,COc1ccccc1NC(=O)c1cc[n+]([O-])cc1,15.8%
5,C/C(=N\NC(=O)c1cc(-c2ccc(C)s2)[nH]n1)c1ccncc1,-1.13%
6,CCOC(=O)C1(CCc2ccccc2)CCN(C2Cc3ccccc3C2)CC1,-64.8%
7,CC1CCN(CCCN2C(=O)C3C(C(=O)Nc4cccc(Cl)c4)C4C=CC3(O4)C2C(=O)NC2CCCCC2)CC1 (stereo not shown),2.22%
8,CCC(CC)N1CCN(Cc2nc3ccc([N+](=O)[O-])cc3c(=O)n2-c2ccccc2F)CC1,-57%
9,O=C(N1CCOCC1)N1CCN(S(=O)(=O)c2ccc(F)cc2)CC1,9.8%
10,CN(C)S(=O)(=O)c1ccc(N2CCCC2)c(C(=O)N2CCN(S(=O)(=O)c3ccccc3F)CC2)c1,-6.1%
11,C/C(=N\Nc1cccc(Cl)c1)c1ccc(-n2ccnc2)cc1,2.23%
12,CCC1=C(OC(=O)N(CC)CC)N2C(=O)OC(=NCCc3c[nH]c4ccccc34)[C@]2(Cc2ccccc2)[C@H]2C1=CC[C@H]1C(=O)NC(=O)[C@H]12,9.22%
13,Cn1c(C(=O)NC2CCCCC2)cc2sccc21,-7.87%
14,O=C(Nc1ccc(C(=O)O)cc1)/C(=C\c1cccc([N+](=O)[O-])c1)NC(=O)c1ccc(Br)o1,32.7%
15,COc1ccccc1CNC(=O)COC(=O)c1nccnc1N,26.7%
16,COc1ccc2c(c1)nc(SCC(O)c1ccccc1)n2C (stereo not shown),-60.2%
17,COc1ccc(COC(=O)N/N=C(\C)CC(=O)Nc2ccc(Cl)cc2)cc1,-40.9%
18,CN1CCN(C(=O)/C=C/c2c(F)cccc2Cl)CC1,-6.29%
19,CN1CCN(Cc2nc3ccccc3c(=O)n2Cc2nc(-c3ccc([N+](=O)[O-])cc3)cs2)CC1,-73.8%
20,CCN(CC)C(=O)C(=O)c1cccn1-c1c(Cl)cccc1C#N,7.17%
21,CN(C)/N=C/c1ccc(Sc2ccc([N+](=O)[O-])cc2[N+](=O)[O-])o1,7.3%
22,CN(Cc1ccc(F)cc1)C(=O)c1sccc1-c1ccccc1,0.217%

row,Compound,"hERG current change (%, negative = inhibition) at 10uM"
1,Cc1cc(C)n(C(=O)C23CC4CC(CC(C4)C2)C3)n1,29.2%
2,CCC(Sc1nc2ccncc2[nH]1)C(=O)Nc1ccc(C)c(Cl)c1 (stereo not shown),-34.7%
3,CCOC(=O)N/N=C/c1cn(Cc2ccc(F)cc2)c2ccccc12,3.37%
4,O=C(CSc1nc2ccccc2c(=O)n1-c1ccccc1F)NC1CCS(=O)(=O)C1 (stereo not shown),-57%
5,CCCCc1cc2c(cc1NC(=O)CN1CCCCC1)OCCO2.Cl,3.82%
6,Cc1ccc(-c2nn(-c3ccccc3)cc2CO)o1,-0.28%
7,Oc1ccc(CN2CCN(c3ccccc3)CC2)c2cccnc12,0.392%
8,Cc1c(N=C2SCC(=O)N2/N=C/c2ccccc2)c(=O)n(-c2ccccc2)n1C,-2.35%
9,CC(C)OCCCNC(=O)C(NC(=O)c1ccc(Cl)cc1)C(C)C (stereo not shown),15.2%
10,CC1C(C#N)=C(N)OC2=C1C(=O)CC(c1ccccc1)C2 (stereo not shown),-5.87%
11,CC1=C(N2CCOCC2)CCC1=O,12.4%
12,Cc1cc(=O)[nH]c2nnc(SCC(=O)N3CC(C)OC(C)C3)n12 (stereo not shown),5.43%
13,Cc1cc(C)nc(NS(=O)(=O)c2ccc(N/C=C\C(=O)c3ccc(Cl)cc3)cc2)n1,9.03%
14,Cc1cc(NC(=O)CSc2nnc(-c3ccccc3F)n2C)no1,3.71%
15,COc1ccccc1/C=C1/SC(=S)N(C(C)C(=O)NC2C=CS(=O)(=O)C2)C1=O (stereo not shown),12.9%
16,Cc1cc(C)c(C)c(OCC(O)CN2CCN(c3ccccn3)CC2)c1.Cl (stereo not shown),-54.4%
17,COC(=O)c1cccc(NC(=O)c2cccnc2C(=O)O)c1C,24.5%
18,CC(Cc1cccs1)NC(=O)c1cccs1 (stereo not shown),16.7%
19,COc1ccc(S(=O)(=O)NCC2CCCN(C(=O)CSC)C2)cc1 (stereo not shown),21.7%
20,COc1ccc(OC)c(/C=C/C(=O)OCC(=O)Nc2cccc(C(C)=O)c2)c1,5.38%
21,O=C(Nc1ccc(S(=O)(=O)NC2=NCCCCC2)cc1)c1ccccc1Cl,0.281%
22,Cc1ccc(C2C(C#N)=C(N)Oc3cc(N)ccc32)cc1 (stereo not shown),8.21%

row,Compound,"hERG current change (%, negative = inhibition) at 10uM"
1,O=S1(=O)CC(O)C(N=Nc2c(O)n(Cc3ccccc3)c3ccccc23)C1 (stereo not shown),3.21%
2,COc1ccc(C(=O)Nc2ccc(N3CCN(C)CC3)cc2)cc1,-15%
3,Cc1c(Cl)ccc2c(C(=O)NCCN3CCCCC3)cc(-c3ccccn3)nc12,-24.6%
4,CCOC(=O)N1CCC(N2CC34C=CC(O3)C(C(=O)Nc3ccc(C(C)C)cc3)C4C2=O)CC1 (stereo not shown),-21.8%
5,Cc1cc(C)cc(-n2c(C)c3c(C)nnc(C)c3c2C)c1,-21.4%
6,NC(=O)CSc1nnc(-c2ccc(S(=O)(=O)N3CCCCC3)cc2)n1-c1ccccc1,-14.2%
7,Cc1ncc(CO)c2c1Oc1nc(-c3ccccc3)nc(SCC(=O)N(C)c3ccccc3)c1C2,13.1%
8,COC(=O)NC1CSCC1OC(=O)CN1C(=O)c2ccccc2C1=O (stereo not shown),-5.99%
9,CCOc1ccc(-c2nc(C#N)c(NCC3CCCO3)o2)cc1 (stereo not shown),-21.6%
10,Cc1cccc(N(Cc2ccccc2)C(=O)c2cc(S(=O)(=O)N3CCOCC3)ccc2Cl)c1,-13.3%
11,CCn1c(SCC(=O)N2CCCC2)nc2c1c(=O)n(C)c(=O)n2C,-6.79%
12,Cc1nc(N)sc1-c1nnc(SCC(=O)Nc2ccccc2C(F)(F)F)n1C,15.1%
13,Cc1cc(C)n(CC(=O)NNC(=O)COc2ccc(F)cc2Br)n1,15.6%
14,CCOC(=O)C1CCN(CCC(=O)Nc2ccc(Cl)cc2)CC1,-62.4%
15,O=C1[C@@H]2[C@@H]3C[C@@H]([C@H]4ON=C(c5ccc(Cl)cc5)[C@@H]34)[C@@H]2C(=O)N1C1CCCCC1,-24.6%
16,CCOC(=O)CCCNC(=O)c1cncc(Br)c1,-0.786%
17,Cc1cccc(C)c1NC(=S)NCCSc1ccc(Cl)cc1,14.7%
18,O=C(Nc1cccnc1)c1cc(S(=O)(=O)N2CCCCC2)c(Cl)cc1Cl,-10.6%
19,CC1CC(C)CN(C(=O)CSc2nnc(N)s2)C1 (stereo not shown),11.4%
20,CCSc1nc2ccccc2n1Cc1nc(N)nc(N(C)C)n1,-1.89%
21,Cl.OC(COc1ccc2c(c1)CCC2)CN1CCN(c2cccc(Cl)c2)CC1 (stereo not shown),-10.4%
22,Cc1c(NC(=O)c2cccc(NC(=O)Cc3c(F)cccc3Cl)c2)c(=O)n(-c2ccccc2)n1C,-9.81%

row,Compound,"hERG current change (%, negative = inhibition) at 10uM"
1,Cn1c(N)c(S(=O)(=O)NCc2ccccc2Cl)c(=O)n(C)c1=O,2.82%
2,O=C(NNc1ccc(Cl)cc1)c1cccs1,7.21%
3,O=C(C[n+]1cc(-c2ccccc2)n2c1CCCCC2)c1ccc(Br)cc1.[Br-],-52.7%
4,O=c1cc([O-])nc(SCc2ccccc2)n1-c1ccc(F)cc1.[K+],4.95%
5,Cc1ccccc1C(=O)Nc1ccccc1-c1nnn(CC(=O)Nc2ccc3c(c2)OCCO3)n1,-2.51%
6,C/C(=N\NC(=O)Cc1cc(=O)[nH][nH]1)c1cccc([N+](=O)[O-])c1,21.6%
7,c1ccc(CCNc2nc(-c3ccncc3)nc3ccccc23)cc1,3.71%
8,COc1ccc(-c2nn(-c3ccccc3)cc2CNC(=O)c2cccc([N+](=O)[O-])c2)cc1,13.9%
9,COc1ccccc1-c1ccc(SCc2cccc(F)c2)nn1,18%
10,CCN(CC)CCN1C(=O)C(=O)/C(=C(/O)c2c(C)[nH]c(C(=O)OC)c2C)C1c1ccc(C)o1 (stereo not shown),8.52%
11,Cc1ccc(C2(C(F)(F)F)NC(=O)N3CCCN=C3S2)cc1 (stereo not shown),16.5%
12,Cc1ccc(S(=O)(=O)C(C)C(=O)NCCS(=O)(=O)c2ccc(Cl)cc2)cc1 (stereo not shown),-26.8%
13,CCCCn1nc(C(=O)N2CCc3ccccc32)c2ccccc2c1=O,-28.4%
14,CC(C)N(CCCNC(=O)Cn1ncc2c([nH]c3ccccc32)c1=O)Cc1ccccc1,-48.1%
15,CCCc1cc(=O)[nH]c(SCC(=O)Nc2cccc(S(=O)(=O)N3CCCCC3)c2)n1,-22.7%
16,COc1ccc(NC(=S)Nc2ccc(S(=O)(=O)N3CCOCC3)cc2)c(OC)c1,4.58%
17,CCN(CC)c1ccc(-c2n[nH]c(=S)n2-c2ccccc2)cc1,20.7%
18,CCOC(=O)c1cc(-c2ccccc2)n(CC(=O)Nc2ccc(OCC)cc2)c1C,14%
19,c1ccc(C2CCC(N3CCC(N4CCCCC4)CC3)CC2)cc1 (stereo not shown),10.8%
